The record followed here is publication PMC10564622 (Free Radical Biology & Medicine, 2023).

What all share (settings): both partners purified
The target of assay [1] is T1, CoraFluor-1-labeled KEAP1FL (full-length, untagged KEAP1, residues 1–624) (human, UniProt Q14145, CoraFluor-1 by direct acylation with CoraFluor-1-Pfp (sites not given)). In words: FRET or BRET; TR-FRET protein displacement assay: CoraFluor-1-labeled KEAP1FL + AF488-labeled CUL3NTD, unlabeled protein titrated (cmax 25 μM); assay buffer pH 7.5, 2 h, room temperature; KD from IC50 by Cheng-Prusoff.

Assay [2] has as its target T1, CoraFluor-1-labeled KEAP1FL …. The assay can be described thus: FRET or BRET; TR-FRET saturation binding: AF488-labeled CUL3NTD titrated (cmax 1000 nM) onto CoraFluor-1-labeled KEAP1 or KLHL11; 25 mM HEPES, 150 mM NaCl, 1 mM DTT, 0.5 mg/mL BSA, 0.005% TWEEN-20, pH 7.5; 2 h, room temperature; One Site – Total Binding model. A general note: In BRET a luciferase serves as donor, and the signal depends on an acceptor being close.

Assay [3] shares this target. The assay can be described thus: FRET or BRET; TR-FRET dissociation: pre-equilibrated 20 nM CoraFluor-1-KEAP1 + 300 nM AF488-CUL3NTD, or 2 nM CoraFluor-1-KLHL11 + 45 nM AF488-CUL3NTD; 25 μM unlabeled KLHL11 added, read for 30 min; one-phase decay.
In assay [4] the target is T2, KEAP1_(BTB-BACK-Kelch) (KEAP1 residues 48–624) (human, UniProt Q14145). The assay can be described thus: FRET or BRET; TR-FRET protein displacement assay: CoraFluor-1-labeled KEAP1FL + AF488-labeled CUL3NTD, unlabeled protein titrated (cmax 25 μM); assay buffer pH 7.5, 2 h, room temperature; KD from IC50 by Cheng-Prusoff.
In assay [5] the target is T2, KEAP1_(BTB-BACK-Kelch) (KEAP1 residues …). In words: FRET or BRET; TR-FRET protein displacement assay: CoraFluor-1-labeled KLHL11_(BTB-BACK) + AF488-labeled CUL3NTD, unlabeled protein titrated (cmax 25 μM); assay buffer pH 7.5, 2 h, room temperature; KD from IC50 by Cheng-Prusoff.
The target of assay [6] is T1, CoraFluor-1-labeled KEAP1FL …. The assay can be described thus: FRET or BRET; TR-FRET saturation binding of AF488-labeled CUL3NTD to CoraFluor-1-labeled KEAP1FL in the presence of 1 or 10 μM CDDO.

B1: CUL3NTD (CUL3 N-terminal domain, […], I342R L346D) (domain or fragment)
chain: not shown
notes: human CUL3, Uniprot […], […], vector pNIC-CTHF, with stabilising mutations I342R and L346D (split-n-express); source: E. coli BL21(DE3)-pRARE2, purified (nickel sepharose, TEV cleavage, SEC); not shown: His6, C-terminal, cleaved; FLAG, C-terminal, cleaved
In general, Kd refers to a measure of binding affinity in units of concentration. As to B1, in assay [1], the Kd turned out to be 129 nM.

B2: AF488-labeled CUL3NTD (domain or fragment)
chain: not shown
modifications: AF488 by direct acylation with AF488-Tfp (sites not given)
notes: human CUL3, Uniprot […], […], vector pNIC-CTHF, with stabilising mutations I342R and L346D; also called AF488-CUL3NTD; source: E. coli BL21(DE3)-pRARE2, purified (nickel sepharose, TEV cleavage, SEC), labeled with AF488-Tfp; not shown: His6, C-terminal, cleaved; FLAG, C-terminal, cleaved
In general, koff refers to the first-order rate constant of dissociation. For B2, the Kd in assay [2] was 222 nM; in assay [4], 396 nM; in assay [5], 798 nM. Also, the koff in assay [3] is 0.00504 s⁻¹. Further, the “fold decrease of affinity with CDDO against no CDDO” value in assay [6] was over 2 fold.
